According to paper PMC9911399, “Two distinct binding modes provide the RNA-binding protein RbFox with extraordinary sequence specificity”:
Where a chain is given by its changes, count along the chain named. This is one part of the list.

B1: UCCACCU (DNA:RNA)
RNA: GGGAGACCGGAAUUCAGAUUGUCCUCCACCUUUAAAUCCCGUCGUAGCCACCA
DNA 1: CAATCTGAATTCCGGTCTCCC
DNA 2: TGGTGGCTACGACGGGATT
B2: GACCUUA (DNA:RNA)
RNA: B1 RNA with U25G, C26A, A28C, C29U, C30U, U31A
DNA 1: CAATCTGAATTCCGGTCTCCC
DNA 2: TGGTGGCTACGACGGGATT
B3: GGACGUC (DNA:RNA)
RNA: GGGAGACCGGAAUUCAGAUUGUCCGGACGUCUUAAAUCCCGUCGUAGCCACCA
DNA 1: CAATCTGAATTCCGGTCTCCC
DNA 2: TGGTGGCTACGACGGGATT
B4: GCCCAUU (DNA:RNA)
RNA: B3 RNA with G26C, A27C, G29A, C31U
DNA 1: CAATCTGAATTCCGGTCTCCC
DNA 2: TGGTGGCTACGACGGGATT
B5: ACGACAU (DNA:RNA)
RNA: B1 RNA with U25A, C27G, C30A
DNA 1: CAATCTGAATTCCGGTCTCCC
DNA 2: TGGTGGCTACGACGGGATT
B6: ACCACAC (DNA:RNA)
RNA: B1 RNA with U25A, C30A, U31C
DNA 1: CAATCTGAATTCCGGTCTCCC
DNA 2: TGGTGGCTACGACGGGATT
B7: UGGGUGC (DNA:RNA)
RNA: B3 RNA with G25U, A27G, C28G, G29U, U30G
DNA 1: CAATCTGAATTCCGGTCTCCC
DNA 2: TGGTGGCTACGACGGGATT
B8: AGAUACG (DNA:RNA)
RNA: B3 RNA with G25A, C28U, G29A, U30C, C31G
DNA 1: CAATCTGAATTCCGGTCTCCC
DNA 2: TGGTGGCTACGACGGGATT
B9: GGCACUG (DNA:RNA)
RNA: B3 RNA with A27C, C28A, G29C, C31G
DNA 1: CAATCTGAATTCCGGTCTCCC
DNA 2: TGGTGGCTACGACGGGATT

biological target: T1, RBFOX1 RRM RbFoxmut (Fox-RRM*) (Homo sapiens, UniProt Q9NWB1 109-208, R118D;E147R;N151S;E152T); experiment: EMSA; HiTS-Eq, 1 nM pool, 10 min; buffer printed only for the single-RNA assays: 10 mM Tris pH 7.5, 150 mM NaCl, 3.4 mM EDTA, 0.001% NP-40, 30 C; details: tags: His6 N-terminal (pET28a); label: 5' 32P
T1 sequence: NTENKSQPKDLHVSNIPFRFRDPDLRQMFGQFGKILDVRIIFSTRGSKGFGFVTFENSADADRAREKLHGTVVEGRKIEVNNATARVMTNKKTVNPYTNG
How it was run: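 Purified wild-type or mutant RbFox RRM at increasing concentrations was equilibrated with 1 nM of 5′-radiolabelled RNA carrying 7 randomized nucleotides for 10 min in 50 µL. Unbound RNA was separated by 8% native PAGE and sequenced. Relative association constants came from read-count changes of each RNA species compared with the control reaction, normalised to the cognate motif.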

Row | Binder | binding signal
1 | B1 | 0.0768 KA relative to UGCAUGU
2 | B2 | 0.0719 KA relative to UGCAUGU
3 | B3 | 0.147 KA relative to UGCAUGU
4 | B4 | 0.0877 KA relative to UGCAUGU
5 | B5 | 0.0911 KA relative to UGCAUGU
6 | B6 | 0.104 KA relative to UGCAUGU
7 | B7 | 0.195 KA relative to UGCAUGU
8 | B8 | 0.123 KA relative to UGCAUGU
9 | B9 | 0.109 KA relative to UGCAUGU
